Laboratory results as given in patent publication US11524046B2, “Biofilm prevention, disruption and treatment with bacteriophage lysin” (priority 2012, dated 2022).

System: S. aureus (MRSA strain ATCC BAA-42) biofilm
Experiment: In vivo catheter-based biofilm model, subcutaneous implant in mice, methylene blue staining
Conditions: single bolus 100 μg, catheters removed 6 hrs post treatment
Procedure: A catheter-based model was evaluated using catheters situated subcutaneous in flank, intraperitoneal or intramuscular into the thigh (modified from Zhu Y et al (2007) Infect Immunol 75(9):4219-4226). This catheter-based murine model is used to assess the impact of PlySs2 on biofilm viability in vivo. […] The lumen of each 2 inch catheter is inoculated with 200 μl of Tryptic Soy Broth (TSB) supplemented with 0.25% glucose containing 2×10^7 CFU of S. aureus, and biofilms are grown for 72 hours at 37° C. Alternatively, catheters are cut into 2 mm segments and placed in 1.0 ml of inoculated TSB supplemented with 0.25% glucose, and catheter segments are passaged daily into fresh medium for three days prior to implantation. Anesthesia is induced in 6-8 week old Balb/c mice by intraperitoneal injection of 0.15 ml of 100 mg/kg ketamine and 10 mg/kg xylazine (Butler-Schein). Catheter segments are implanted subcutaneously in each flank of the mice, or alternatively into the intraperitoneal space or thigh muscle. Groups of 5-10 mice were implanted with biofilm. Mice are treated with an appropriate amount of PlySs2, antibiotic or vehicle, or combination of PlySs2+antibiotic 1-24 hours post implantation. All mice from each group were humanely sacrificed at 1-4 days post-infection. To quantify biofilm formation, infected catheters were removed immediately after sacrifice, gently washed three times in sterile PBS to remove non-adherent bacteria, and subsequently placed in 5 ml of sterile PBS. Adherent bacteria are removed from the catheters by sonication. The number of recovered bacteria is then quantified by serial dilution and plate counting on the appropriate selective media. […] Methylene Blue stain can then be quantified by destaining in 0.2 ml of 30% acetic acid at room temperature and the absorbance read at 600 nm. The extent of residual biofilm mass is expressed as the absorbance reading at 600 nm divided by the weight of the catheter segment (OD600/gm). […]

B1: PlySs2: bacteriophage lysin derived from Streptococcus suis, amino acid sequence of FIG. 5 / SEQ ID NO: 1; CHAP and SH3 domains (protein, listed as Streptococcus suis)
chain: MTTVNEALNNVRAQVGSGVSVGNGECYALASWYERMISPDATVGLGAGVGWVSGAIGDTISAKNIGSSYNWQANGWTVSTSGPFKAGQIVTLGATPGNPYGHVVIVEAVDGDRLTILEQNYGGKRYPVRNYYSAASYRQQVVHYITPPGTVAQSAPNLAGSRSYRETGTMTVTVDALNVRRAPNTSGEIVAVYKRGESFDYDTVIIDVNGYVWVSYIGGSGKRNYVATGATKDGKRFGNAWGTFK
With B1 the “methylene blue staining of implanted catheter” value (from here on “methylene blue staining”) (intraperitoneally (IP)) was “reduced staining”, the “methylene blue staining” value (intravenously (IV)) was “reduced staining” and the “methylene blue staining” value (subcutaneously (SC)) was “elimination of staining in the catheter to near control levels”.
